The subject of data set [1] is ceramide-activated protein kinase. The note with it: nuclei-free supernates; read-out: Michaelis constant (Km) for ATP; cited from earlier work.
Data set [2] has the same test system. The conditions noted are these: for effect on EGFR peptide phosphorylation (in words): A-431; for effect of cations / chelator on kinase activity toward EGFR peptide: Mg^2+ 25 mM, Mn^2+ 1-10 mM, Zn^2+ 1-10 mM, Ca^2+ 0.001-10 mM, EGTA 1 mM alone.
Data set [3] has the same test system. The conditions noted are these: C8-cer 0.3 μM added to medium.

One may read the Km as the concentration of substrate that gives half-maximal velocity.

Read-outs that look alike come from different tables or passages of the source.

For the molecule `Nc1ncnc2c1ncn2[C@@H]1O[C@H](COP(=O)(O)OP(=O)(O)OP(=O)(O)O)[C@@H](O)[C@H]1O` [ATP, adenosine triphosphate], the Km in data set [1] was 15 µM; in data set [2] (read-out: Apparent Km for ATP, A-431, 5 minutes) it was 15 µM.

For the molecule `CCCCCCCCCCCCC/C=C/[C@@H](O)[C@H](CO)NC(=O)CCCCCCC` [C8 -cer, N-octanoylsphingosine, reference compound], the “effect on EGFR peptide phosphorylation (in words)” value in data set [2] is recorded as “similarly effective”. Also, the “increase in kinase activity” value in data set [3] was 1.2 -fold of control.

As to `O=C(O)CN(CCOCCOCCN(CC(=O)O)CC(=O)O)CC(=O)O` [EGTA], in data set [2], the “effect of cations / chelator on kinase activity toward EGFR peptide” value is “peptide phosphorylation did not occur”.

In the case of `[Mg+2]` [Mg^2+], the “kinase activity with Mg^2+” value in data set [2] (0.1 mM Mg^2+, 2 minutes) is recorded as 4 pmol.min^-1 (mg of protein^-1). The “effect of cations / chelator on kinase activity toward EGFR peptide” value in data set [2] is on record as “did not further increase activity”. Further, the “concentration for maximal activity (Mg^2+)” value in data set [2] (Mg^2+, 2 minutes) came to 10 mM. Also, the EC50 in data set [2] (read-out: ED50 (Mg^2+), Mg^2+-dependence of peptide phosphorylation, 2 minutes) was about 3.5 mM.

On to `CCCCCCCCCCCCCCCC(=O)O` [palmitic acid], for which the “effect on EGFR peptide phosphorylation (in words)” value in data set [2] is listed as “failed to increase EGFR peptide phosphorylation”.

These data come from patent publication US5451518A, “Purified human ceramide-activated protein kinase” (Sloan-Kettering Institute for Cancer Research, priority 1992, dated 1995).
